The supplement of paper PMC4967469
The IC50 comes from the fitted curve, where viability falls to half of the control; a fit beyond the top or the lowest dose is shown as a bound at that dose. For AUC the same curve is integrated over the 256-fold range of doses and scaled to a fraction; the more sensitive the line, the further below 1. For part of these data: Where the top dose is marked as inferred, it was calculated from the reported fits.

Key:
Assay in all cases: Viability of human cancer cell lines after 72 h of drug (GDSC screen)
PIK-93 = compound: CC(=O)Nc1nc(C)c(-c2ccc(Cl)c(S(=O)(=O)NCCO)c2)s1 [PIK-93]; conditions: top dose 20 µM
Protocol: (§1)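 Human cancer cell lines in 384-well plates, medium with 10% serum, drug for 72 h over a 256-fold dose range (nine 2-fold or five 4-fold steps up to the top dose). Adherent lines were fixed and stained with the nucleic acid dye Syto60, suspension lines read with resazurin; signal relative to control wells, capped at 0 and 100%. One two-parameter sigmoid per drug and line, fitted in a mixed model over all curves with the slope shared within a line.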

piperlongumine = compound: COc1cc(/C=C/C(=O)N2CCC=CC2=O)cc(OC)c1OC [piperlongumine]; conditions: top dose 10 µM
Protocol: as §1

ABT-263 = compound: CC1(C)CCC(c2ccc(Cl)cc2)=C(CN2CCN(c3ccc(C(=O)NS(=O)(=O)c4ccc(N[C@H](CCN5CCOCC5)CSc5ccccc5)c(S(=O)(=O)C(F)(F)F)c4)cc3)CC2)C1 [ABT-263]; conditions: top dose 2 µM; top dose inferred
Protocol: as §1

GW 441756 = compound: Cn1cc(/C=C2\C(=O)Nc3cccnc32)c2ccccc21 [GW 441756]; conditions: top dose 2 µM; top dose inferred
Protocol: as §1

SK-MG-1 (glioma, adherent)
AUC (PIK-93): 0.824
IC50 (PIK-93): 12 µM
AUC (piperlongumine): 0.783
IC50 (piperlongumine): 4.28 µM
AUC (ABT-263): 0.942
IC50 (ABT-263): > 2 µM
AUC (GW 441756): 0.932
IC50 (GW 441756): > 2 µM

SNU-407 (large intestine, adherent)
AUC (PIK-93): 0.552
IC50 (PIK-93): 1.78 µM
AUC (piperlongumine): 0.691
IC50 (piperlongumine): 2.36 µM
AUC (ABT-263): 0.947
IC50 (ABT-263): > 2 µM
AUC (GW 441756): 0.906
IC50 (GW 441756): > 2 µM

NCI-H1693 (lung adenocarcinoma, adherent)
AUC (PIK-93): 0.82
IC50 (PIK-93): > 20 µM
AUC (piperlongumine): 0.653
IC50 (piperlongumine): 2.15 µM
AUC (ABT-263): 0.924
IC50 (ABT-263): > 2 µM
AUC (GW 441756): 0.942
IC50 (GW 441756): > 2 µM

HCT-116 (large intestine, adherent)
AUC (PIK-93): 0.768
IC50 (PIK-93): 7.15 µM
AUC (piperlongumine): 0.75
IC50 (piperlongumine): 3.13 µM
AUC (ABT-263): 0.987
IC50 (ABT-263): > 2 µM
AUC (GW 441756): 0.98
IC50 (GW 441756): > 2 µM

OE19 (oesophagus, adherent)
AUC (PIK-93): 0.986
IC50 (PIK-93): > 20 µM
AUC (piperlongumine): 0.814
IC50 (piperlongumine): 6.36 µM
AUC (ABT-263): 0.93
IC50 (ABT-263): > 2 µM
AUC (GW 441756): 0.975
IC50 (GW 441756): > 2 µM

PCI-30 (head and neck, adherent)
AUC (PIK-93): 0.918
IC50 (PIK-93): > 20 µM
AUC (piperlongumine): 0.791
IC50 (piperlongumine): 5.64 µM
AUC (ABT-263): 0.942
IC50 (ABT-263): > 2 µM
AUC (GW 441756): 0.983
IC50 (GW 441756): > 2 µM

Ca9-22 (head and neck, adherent)
AUC (PIK-93): 0.825
IC50 (PIK-93): 10.9 µM
AUC (piperlongumine): 0.573
IC50 (piperlongumine): 0.973 µM
AUC (ABT-263): 0.949
IC50 (ABT-263): > 2 µM
AUC (GW 441756): 0.989
IC50 (GW 441756): > 2 µM

EW-7 (Ewing sarcoma, semi-adherent)
AUC (PIK-93): 0.271
IC50 (PIK-93): 0.308 µM
AUC (piperlongumine): 0.809
IC50 (piperlongumine): 4.45 µM
AUC (ABT-263): 0.682
IC50 (ABT-263): 0.375 µM
AUC (GW 441756): 0.99
IC50 (GW 441756): > 2 µM

RERF-LC-KJ (lung adenocarcinoma, adherent)
AUC (PIK-93): 0.913
IC50 (PIK-93): > 20 µM
AUC (piperlongumine): 0.849
IC50 (piperlongumine): 7.88 µM
AUC (ABT-263): 0.98
IC50 (ABT-263): > 2 µM
AUC (GW 441756): 0.788
IC50 (GW 441756): 0.906 µM

TE-4 (oesophagus, adherent)
AUC (PIK-93): 0.975
IC50 (PIK-93): > 20 µM
AUC (piperlongumine): 0.829
IC50 (piperlongumine): 6.18 µM
AUC (ABT-263): 0.923
IC50 (ABT-263): > 2 µM
AUC (GW 441756): 0.897
IC50 (GW 441756): > 2 µM

CP50-MEL-B (melanoma, adherent)
AUC (PIK-93): 0.765
IC50 (PIK-93): 7.23 µM
AUC (piperlongumine): 0.792
IC50 (piperlongumine): 4.46 µM
AUC (ABT-263): 0.937
IC50 (ABT-263): > 2 µM
AUC (GW 441756): 0.988
IC50 (GW 441756): > 2 µM

JHH-1 (liver, adherent)
AUC (PIK-93): 0.815
IC50 (PIK-93): 12.2 µM
AUC (piperlongumine): 0.839
IC50 (piperlongumine): 7.68 µM
AUC (ABT-263): 0.965
IC50 (ABT-263): > 2 µM
AUC (GW 441756): 0.961
IC50 (GW 441756): > 2 µM

UACC-893 (breast, adherent)
AUC (PIK-93): 0.791
IC50 (PIK-93): 12.5 µM
AUC (piperlongumine): 0.703
IC50 (piperlongumine): 2.87 µM
AUC (ABT-263): 0.955
IC50 (ABT-263): > 2 µM
AUC (GW 441756): 0.946
IC50 (GW 441756): > 2 µM

639-V (bladder, adherent)
AUC (PIK-93): 0.952
IC50 (PIK-93): > 20 µM
AUC (piperlongumine): 0.806
IC50 (piperlongumine): 4.19 µM
AUC (ABT-263): 0.968
IC50 (ABT-263): > 2 µM
AUC (GW 441756): 0.901
IC50 (GW 441756): 1.9 µM

C3A (liver, adherent)
AUC (PIK-93): 0.987
IC50 (PIK-93): > 20 µM
AUC (piperlongumine): 0.846
IC50 (piperlongumine): 7.76 µM
AUC (ABT-263): 0.988
IC50 (ABT-263): > 2 µM
AUC (GW 441756): 0.987
IC50 (GW 441756): > 2 µM

BHT-101 (thyroid, adherent)
AUC (PIK-93): 0.691
IC50 (PIK-93): 4.39 µM
AUC (piperlongumine): 0.736
IC50 (piperlongumine): 3.03 µM
AUC (ABT-263): 0.86
IC50 (ABT-263): 1.77 µM
AUC (GW 441756): 0.79
IC50 (GW 441756): 0.918 µM

OV-17R (ovary, adherent)
AUC (PIK-93): 0.76
IC50 (PIK-93): 9.8 µM
AUC (piperlongumine): 0.764
IC50 (piperlongumine): 5.08 µM
AUC (ABT-263): 0.967
IC50 (ABT-263): > 2 µM
AUC (GW 441756): 0.828
IC50 (GW 441756): 1.97 µM

M059J (glioma, adherent)
AUC (PIK-93): 0.795
IC50 (PIK-93): 10.2 µM
AUC (piperlongumine): 0.759
IC50 (piperlongumine): 3.77 µM
AUC (ABT-263): 0.927
IC50 (ABT-263): > 2 µM
AUC (GW 441756): 0.985
IC50 (GW 441756): > 2 µM

HuO-3N1 (osteosarcoma, adherent)
AUC (PIK-93): 0.844
IC50 (PIK-93): > 20 µM
AUC (piperlongumine): 0.848
IC50 (piperlongumine): > 10 µM
AUC (ABT-263): 0.978
IC50 (ABT-263): > 2 µM
AUC (GW 441756): 0.978
IC50 (GW 441756): > 2 µM

HCC1569 (breast, adherent)
AUC (PIK-93): 0.826
IC50 (PIK-93): 18 µM
AUC (piperlongumine): 0.874
IC50 (piperlongumine): > 10 µM
AUC (ABT-263): 0.588
IC50 (ABT-263): 0.235 µM
AUC (GW 441756): 0.977
IC50 (GW 441756): > 2 µM

JHH-4 (liver, adherent)
AUC (PIK-93): 0.726
IC50 (PIK-93): 5.48 µM
AUC (piperlongumine): 0.792
IC50 (piperlongumine): 4.51 µM
AUC (ABT-263): 0.86
IC50 (ABT-263): 1.67 µM
AUC (GW 441756): 0.977
IC50 (GW 441756): > 2 µM

SW1271 (small cell lung carcinoma, adherent)
AUC (PIK-93): 0.737
IC50 (PIK-93): 6.69 µM
AUC (piperlongumine): 0.765
IC50 (piperlongumine): 4.2 µM
AUC (ABT-263): 0.984
IC50 (ABT-263): > 2 µM
AUC (GW 441756): 0.949
IC50 (GW 441756): > 2 µM

OSC-20 (head and neck, adherent)
AUC (PIK-93): 0.84
IC50 (PIK-93): 17.7 µM
AUC (piperlongumine): 0.762
IC50 (piperlongumine): 4.22 µM
AUC (ABT-263): 0.971
IC50 (ABT-263): > 2 µM
AUC (GW 441756): 0.98
IC50 (GW 441756): > 2 µM

PE/CA-PJ15 (head and neck, adherent)
AUC (PIK-93): 0.917
IC50 (PIK-93): > 20 µM
AUC (piperlongumine): 0.696
IC50 (piperlongumine): 2.33 µM
AUC (ABT-263): 0.941
IC50 (ABT-263): > 2 µM
AUC (GW 441756): 0.97
IC50 (GW 441756): > 2 µM

LK-2 (lung squamous cell carcinoma, adherent)
AUC (PIK-93): 0.871
IC50 (PIK-93): 17 µM
AUC (piperlongumine): 0.929
IC50 (piperlongumine): > 10 µM
AUC (ABT-263): 0.923
IC50 (ABT-263): > 2 µM
AUC (GW 441756): 0.96
IC50 (GW 441756): > 2 µM

H2369 (mesothelioma, adherent)
AUC (PIK-93): 0.935
IC50 (PIK-93): > 20 µM
AUC (piperlongumine): 0.786
IC50 (piperlongumine): 4.46 µM
AUC (ABT-263): 0.982
IC50 (ABT-263): > 2 µM
AUC (GW 441756): 0.662
IC50 (GW 441756): 0.359 µM

BxPC-3 (pancreas, adherent)
AUC (PIK-93): 0.692
IC50 (PIK-93): 4.64 µM
AUC (piperlongumine): 0.715
IC50 (piperlongumine): 2.75 µM
AUC (ABT-263): 0.972
IC50 (ABT-263): > 2 µM
AUC (GW 441756): 0.982
IC50 (GW 441756): > 2 µM

EBC-1 (lung squamous cell carcinoma, adherent)
AUC (PIK-93): 0.949
IC50 (PIK-93): > 20 µM
AUC (piperlongumine): 0.706
IC50 (piperlongumine): 2.58 µM
AUC (ABT-263): 0.77
IC50 (ABT-263): 0.856 µM
AUC (GW 441756): 0.974
IC50 (GW 441756): > 2 µM

SUIT-2 (pancreas, adherent)
AUC (PIK-93): 0.527
IC50 (PIK-93): 1.48 µM
AUC (piperlongumine): 0.823
IC50 (piperlongumine): 6.31 µM
AUC (ABT-263): 0.981
IC50 (ABT-263): > 2 µM
AUC (GW 441756): 0.986
IC50 (GW 441756): > 2 µM

OACp4C (oesophagus, adherent)
AUC (PIK-93): 0.313
IC50 (PIK-93): 0.333 µM
AUC (piperlongumine): 0.874
IC50 (piperlongumine): > 10 µM
AUC (ABT-263): 0.623
IC50 (ABT-263): 0.292 µM
AUC (GW 441756): 0.888
IC50 (GW 441756): > 2 µM
